Assay results: article PMC12136788
The other results are listed elsewhere or left out.

T1: UNK ZnF1-6 (called full-length) (human, UniProt Q9C0B0 30-357)
T1 sequence: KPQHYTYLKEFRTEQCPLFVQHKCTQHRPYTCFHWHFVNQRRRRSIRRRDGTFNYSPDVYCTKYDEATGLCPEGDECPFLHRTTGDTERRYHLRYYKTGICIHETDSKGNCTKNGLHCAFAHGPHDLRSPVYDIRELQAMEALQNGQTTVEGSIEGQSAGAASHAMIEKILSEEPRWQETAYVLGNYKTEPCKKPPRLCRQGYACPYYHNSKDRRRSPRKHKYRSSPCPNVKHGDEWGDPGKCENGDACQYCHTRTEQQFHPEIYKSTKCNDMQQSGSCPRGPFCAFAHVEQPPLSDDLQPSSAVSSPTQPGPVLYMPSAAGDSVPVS

B1: chr2:27376893:27376994:+|3pUTR|ENSG00000115234|msi1|total|mutant (ssRNA)
RNA: GGGAGUUCUACAGUCCGACGAUCGGGCUGGCUGCACAGAGGAUUGCCCCUUCUCUUUUCAGAGCUGGCCCUCGAUGCCAAAUCCGCAUUCCGUAUUUUGCACAAAGUCUAAGGGACCAUGGCUGCCUGCCUUGGGGAGGAACCCAACAGAGGAUUGAGCAUCA
B2: chr4:87458373:87458474:+|3pUTR|ENSG00000170502|unk|FALSE|unique (ssRNA)
RNA: GGGAGUUCUACAGUCCGACGAUCUCCCUCCCGCUCCCCAUCUUCUGAGGCCUGAAGGAUGUUCCUGCCACAUCAAACUCCUUUAGGCAGAGUACCGCCACUGGAUGUAUAGUUUAAUGUUUCAUCUGAUUUUUCUUUAAAUUACAACAGAGGAUUGAGCAUCA
B3: chr10:91841327:91841437:+|CDS|ENSG00000107854|unk|FALSE|unique (ssRNA)
RNA: GGGAGUUCUACAGUCCGACGAUCUUCUUAUGGACAUUAUGAAGUUGCAGAACUUCUUGUUAAACAUGGAGCAGUAGUUAAUGUAGCUGAUUUAUGGAAAUUUACACCUUUACAUGAAGCAGCAGCAAAAGGAAAAUAUGAAAUCAACAGAGGAUUGAGCAUCA
B4: chr11:48137134:48137235:+|CDS|ENSG00000149177|msi1|total|mutant (ssRNA)
RNA: GGGAGUUCUACAGUCCGACGAUCCACGUACUCCUACUGCCUUCUUAUUGAGAAGGCUGGAAAUUCCAGCAACGCAACACAAGCCGUCACGGACAUUGGAAUUACUGACGCUACAGUCACUGAAUUAAUACCUGGCUCAUCAUACAACAGAGGAUUGAGCAUCA
B5: chr18:49591392:49591493:+|3pUTR|ENSG00000101670|msi1|total|mutant (ssRNA)
RNA: GGGAGUUCUACAGUCCGACGAUCCCUUCUCCGUUAUUAUGUGCCACCUCCCCUAUGAGUGACGUGUUUGAUCACCCGCAGAACCGCAAGCAGAGUAUCAUUCAUGCUGGGGCCAGAAUGAUGGCCGGUUGCCAGAUAUAACUGCAACAGAGGAUUGAGCAUCA
B6: chr7:6162096:6162197:-|3pUTR|ENSG00000008256|msi1|total|mutant (ssRNA)
RNA: GGGAGUUCUACAGUCCGACGAUCGUCACAGAACAUUUUGGGGCAGUUUAAUGUGGUACCAAACUGAAAACCGGAGCUAUUUACCGAUGGAGCAGCACUCCGUGCUUCACCGAAAGCAAUGCCUAUUUUUAAAGUUACAAACGCCAACAGAGGAUUGAGCAUCA
B7: chr17:37686430:37687371:-|three_prime_utr|ENSG00000275410|control|control|control (ssRNA)
RNA: GGGAGUUCUACAGUCCGACGAUCUGCAAUUUCCCCUCUGUGUCCUCUCCCCUCUGCCCUGUAUAUAAUACUAAAGUGUCUAUUAGUUUUCUUUGUAAAGGUCAGAGUCAAAAUUUCAAAAGUGAUCUGUCCCCUCUCCCCUCACAACAGAGGAUUGAGCAUCA
B8: ENSG00000119777:stop:overlap|stop_codon|ENSG00000119777|stop_codon|NA|stop_codon (ssRNA)
RNA: GGGAGUUCUACAGUCCGACGAUCGCCUACAGGACAUUACAGUGGCUUUCUUGGACUGGGCACUUGCCCUGAUAUCCCAGCAGUAGGCCCUGCCUUCCUGGCCACUGAUUUCUGCAUGGGUAGACCAUCCAAGACUGCAGCGGGCAACAGAGGAUUGAGCAUCA
B9: chr8:19954154:19954263:+|CDS|ENSG00000175445|unk|FALSE|unique (ssRNA)
RNA: GGGAGUUCUACAGUCCGACGAUCACCUAACUUUGAGUAUGCAGAAGCCCCGAGUCGUCUUUCUCCUGAUGAUGCAGAUUUUGUAGACGUCUUACACACAUUCACCAGAGGGUCCCCUGGUCGAAGCAUUGGAAUCCAGAAACCCAACAGAGGAUUGAGCAUCA
B10: chr2:111862450:111862553:-|CDS|ENSG00000153107|unk|FALSE|unique (ssRNA)
RNA: GGGAGUUCUACAGUCCGACGAUCUCUUUUUCAGGGGUGCAAAGGUUCAACAUUUCAAGCCAUAAUCAGUCUCCAAAGAGACAUAGUAUUUCUCAUUCUCCAAAUAGUAAUUCUAAUGGCUCCUUUCUUGCACCAGAAACGGAGCAACAGAGGAUUGAGCAUCA
B11: chr9:114377124:114377225:-|CDS|ENSG00000106948|msi1|total|mutant (ssRNA)
RNA: GGGAGUUCUACAGUCCGACGAUCUCCGUUGAACUCAGCCCGGCAAGGUCCUGGAGCAGUGGGACAGUGAGCCUCGACCACCCCCGUGACAGCCUUGAUUCUACCUGGGAAGGAGAGACCGAUGGCCCCCAGCCCACUGCCCUGCAACAGAGGAUUGAGCAUCA
B12: chr9:115020670:115020933:-|3pUTR|ENSG00000041982|msi1|total|mutant (ssRNA)
RNA: GGGAGUUCUACAGUCCGACGAUCCUUCUCUCCGGUGGCUCUGGGAAUGGGAGAGGGGCCGGAUGUACAGGGGCCGUUUGUUUCCGAACCAGCCGUAUUUUACAUGAAGCUGUAUAAUUAAUUGUCAUUAUUUUUGUCCGCAAACAACAGAGGAUUGAGCAUCA
B13: chr14:100278170:100278208:+|3pUTR|ENSG00000100811|msi1_unk|total|mutant (ssRNA)
RNA: GGGAGUUCUACAGUCCGACGAUCGCUAUCUUAAUUUUGGUUGUAUUCUUUGAUGUUAACACAUUUUGUAUAAUUGUAUCGUACCGCUGUAUUGAAUCAUGCCGUAUCAAAUAUCCGAUGUGAUUUAACCGUGUUAAUCAAUUUCAACAGAGGAUUGAGCAUCA
B14: chr14:60975662:60975785:-|CDS|ENSG00000126814|unk|total|mutant (ssRNA)
RNA: GGGAGUUCUACAGUCCGACGAUCGAAAGAAAACCCUCUGUGCACGUUGUCAUGAACUUGCCAGCAAAAGCUACCGAGUUUCUCCGUGCUUUCAAGUGGCUUUCCGAUGGGCAGCCAUGCAGCAGUGAGUUCCUUCCCACCGUGCAACAGAGGAUUGAGCAUCA

These binders were tested against T1, UNK ZnF1-6 (called full-length) (assay: nsRBNS (natural sequence RNA bind-n-seq); RBNS binding buffer (assumed for nsRBNS): 25 mM Tris pH 7.5, 150 mM KCl, 3 mM MgCl2, 0.01% Triton X-100, 500 ug/ml BSA, 20 U/ml SUPERase-In, 4 C; UNK is unkempt and MSI1 is Musashi-1; names of the RNAs are library labels; protein concentration not given here; high values mean tight binding).

| Binder | binding signal |
| --- | --- |
| B1 | 0.643 enrichment R |
| B2 | 1.65 enrichment R |
| B3 | 0.989 enrichment R |
| B4 | 0.54 enrichment R |
| B5 | 0.75 enrichment R |
| B6 | 0.676 enrichment R |
| B7 | 0.786 enrichment R |
| B8 | 0.579 enrichment R |
| B9 | 0.828 enrichment R |
| B10 | 1.49 enrichment R |
| B11 | 0.905 enrichment R |
| B12 | 0.99 enrichment R |
| B13 | 0.368 enrichment R |
| B14 | 0.51 enrichment R |
